Measured values published in PubChem BioAssay AID1963576 (National Center for Advancing Translational Sciences (NCATS), 2024).
About 60 (0.1%) of roughly 46,000 compounds were called active. Roughly 3% stayed inconclusive and do not appear here. The call rests on the fitted dose curve; in most records, active means well fitted inhibition curve with a large enough effect; inconclusive means small, poorly fitted or top-dose-only effect; inactive means no such curve, though single readings can be large or run the other way. This is one part of the list.

assay: Primary qHTS assay for Inhibitors of ovarian cancer metastasis using an organotypic tumor microenvironment (TME) model.; further: nearly all actives have a fitted effect of over 65% in size;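 on activity change, negative = inhibition: plate controls were DMSO wells for no effect and tomatine positive control wells for full effect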; conditions: SKOV3ip1-GFP adhesion/invasion on 3D omental model, fluorescence; series mostly up to 45.8 µM; activity change, negative = inhibition: at the top concentration
Summary of the method: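 A 3D layer of primary human omental fibroblasts, mesothelial cells, fibronectin and collagen I, grown 48 hr, received SKOV3ip1-GFP cells in serum-free medium plus compounds at 0.36-46 umol/L. After 2 hr RT and 16 hr 37 C, fixed adherent GFP cells were counted; normalized to DMSO and tomatine.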

Activity change, negative = inhibition, inactive:
O=C(NCCc1ccccc1)c1cc(Sc2ccc(F)cc2F)nc2ccccc12 9.98%
COc1cccc(OCc2nc3ccccc3n2CCOc2cccc(C)c2)c1 -8.18%
COc1ccc(-c2onc(C)c2C)cc1S(=O)(=O)NC1CCC(C)CC1 (centres undefined) -5.15%
Cc1ccc(OCC(=O)Nc2ccc(C(=O)OCc3cc(=O)n4c(C)csc4n3)cc2)cc1 -1.39%
O=C(Nc1ccc(F)cc1F)c1ccc(-n2cnnc2)cc1 -8.27%
O=C(NCC12CC3CC(CC(C3)C1)C2)c1cc2nc(-c3ccc(F)cc3)cc(C(F)(F)F)n2n1 1.84%
CCc1ccc(C2c3c(oc4ccc(C)cc4c3=O)C(=O)N2c2nc(C)c(C)s2)cc1 (centres undefined) -2.2%
COc1cccc(-c2ccc3c(N)c(C(=O)Nc4ccc(C)c(F)c4)sc3n2)c1 -35.9%
CNC(=O)COc1ccc(Nc2nnc(-c3ccc(C)c(S(=O)(=O)NC(C)(C)C)c3)c3ccccc23)cc1 1.6%
CCOc1cc(C2c3c(-c4ccccc4O)n[nH]c3C(=O)N2CCc2ccccc2)ccc1O (centres undefined) -10.1%
Cc1ccc(-n2c(=O)c3oc4ccccc4c3n(CC(=O)Nc3ccccc3)c2=O)cc1C -4.64%
COc1ccc(N2CCN(C(=O)Nc3cccc(C(F)(F)F)c3)CC2)cc1 -0.841%
CC(C)CNC(=O)C1=CC(c2ccc3c(c2)OCO3)=NS(=O)(=O)N1C 8.73%
Cc1cc(-n2c(C)nc3ccccc3c2=O)ccc1NC(=O)c1cccc([N+](=O)[O-])c1 -4.29%
CCOC(=O)c1c(NC(=O)c2cc(-c3ccc(OC)cc3)on2)sc(C)c1C -1%
Oc1c(C(c2ccccc2)N2CCN(c3ccccc3)CC2)sc2nc(-c3ccco3)nn12 (centres undefined) -1.89%
Cc1ccc(C(=O)COC(=O)CCC(=O)Nc2ccc(Oc3ccccc3)cc2)cc1C 1.1%
C=CC1=C(C(=O)O)N2C(=O)[C@@H](NC(=O)C(=NO)c3csc(N)n3)[C@H]2SC1 13.7%
O=C(CSc1nc(=O)[nH]c2c1CCC2)NCc1ccccc1 3.36%
Cn1c(CCNC(=O)c2ccco2)nc2cc(NC(=O)COc3ccc(Cl)cc3)ccc21 -2%
CCOc1ccccc1NS(=O)(=O)c1cnc(N)nc1 -0.518%
Cc1ccccc1N1CCN(S(=O)(=O)c2nnc(NC(=O)c3ccc(Cl)cc3)s2)CC1 1.38%
O=C(Cn1c(=O)nc(-c2ccccc2)c2ccccc21)NCCCc1ccccc1 2.83%
COc1ccc(CCNC(=O)CS(=O)Cc2nc(-c3ccc(C)cc3)oc2C)c(OC)c1 (centres undefined) -6.61%
CCOc1ccc(NC(=O)CSc2nnc(-c3ccc(C)cc3)c(-c3ccc(C)cc3)n2)cc1 -12.4%
Cc1oc2ncn(CC(C)C)c(=O)c2c1C(=O)NCCCN(Cc1ccccc1)C(C)C 4.78%
O=C(Cn1cc(S(=O)(=O)Cc2ccc(F)cc2)c2ccccc21)NCc1ccccc1Cl 0.29%
Cc1ccccc1CSc1nnc2[nH]c(=O)cc(C)n12 -2.15%
O=C(NC1CC(=O)N(c2ccc(Cl)cc2)C1)c1ccc(S(=O)(=O)N2CCCC2)cc1 (centres undefined) -7.31%
CCc1cccc(NCc2ccccc2-c2nnc(-c3ccccc3Cl)o2)c1 5.24%
CCCC12CN3CC(C)(CN(C1)C3c1cn(C)c3ccccc13)C2=O (centres undefined) 0.159%
NCCCC(O)(P(=O)(O)O)P(=O)(O)O 12.8%
CCn1c(CN2CCOCC2)nc2cc(NC(=O)c3cc(OC)c(OC)c(OC)c3)ccc21 6.9%
CCc1ccccc1NC(=O)C1CCCN(c2nnc(-n3c(C)ccc3C)s2)C1 (centres undefined) 0.146%
CC(=O)c1ccc(NC(=O)c2cc(-c3ccc(Cl)c(Cl)c3)on2)cc1 9.86%
CCCCSCCCNC(=O)C1CCC(CNS(=O)(=O)c2ccccc2)CC1 (centres undefined) 1.62%
CC1CCN(C(=O)Cn2ncc3c4ccccc4n(Cc4ccc(Cl)cc4)c3c2=O)CC1 2.87%
COc1ccc(-c2cc(C(=O)NCc3ccccc3)c3c(-c4ccccc4)[nH]nc3n2)cc1 -3.28%
COc1ccccc1N1CCN(C(=O)Cc2c(C(=O)O)c(C)cn2C)CC1 0.0817%
O=C(Nc1ccc(F)cc1F)c1ccc2c(=O)n3c(nc2c1)CCCCC3 -2.6%
COc1ccccc1-c1cc(C(=O)Nc2cc(Cl)ccc2O)no1 1.88%
COc1cccc(-n2c(=O)c3sc4ccccc4c3n(CC(=O)Nc3cccc(Cl)c3)c2=O)c1 -3.03%
Fc1ccc(CNc2nc3ccc(Cl)cc3n3nnnc23)cc1 3.65%
O=S(=O)(Nc1cccc(-c2ccc(N3CCCCC3)nn2)c1)c1ccc(Cl)s1 -5.12%
CCOc1ccc(OCC(=O)Nc2c(C(=O)Nc3ccc(C)cc3)oc3ccccc23)cc1 -0.527%
Cc1c(C(=O)N(C)c2cccc(C(F)(F)F)c2)sc2nc3n(c(=O)c12)CCCCC3 1.75%
C=Cc1ccc(Cn2c(=O)n(-c3cccc(C)c3)c(=O)c3c2c2cc(C)ccc2n3C)cc1 -3.83%
O=c1[nH]c(=O)n([C@H]2C[C@@H](O)[C@@H](CO)O2)cc1C=CBr -8.04%
CCSc1ncc(Cl)c(C(=O)N2CCN(c3ccc(OC)cc3)CC2)n1 2.24%
COC(=O)N[C@H](C(=O)N[C@@H](Cc1ccccc1)[C@@H](O)CN(Cc1ccc(-c2ccccn2)cc1)NC(=O)[C@@H](NC(=O)OC)C(C)(C)C)C(C)(C)C 2.71%
CCN(CC)c1ccc(NC(=O)C2COc3ccc(OC)cc3C2)c(C)c1 (centres undefined) -7.53%
CCN(CC)CCCNC(=O)c1ccc2nc(CCc3ccccc3)oc2c1 -1.39%
O=S(=O)(c1cccc(Cl)c1)c1nnn2c1nc(NC1CCCCCC1)c1sccc12 5.18%
O=C(Nc1ccc2c(c1)N(C1CCCC1)C(=O)c1ccccc1S2)c1ccc(F)cc1 -1.27%
CC(C)(C)OC(=O)N1CCC(c2c(C(=O)NCc3ccco3)cnn2-c2ccc(F)cc2)CC1 -3.47%
Cc1ccc(-n2ncc(C(=O)N3CCN(Cc4ccccc4)CC3)c2C2CCN(C(=O)OC(C)(C)C)CC2)c(C)c1 2.77%
CCOC(=O)c1ccccc1NC(=O)Cn1c(=O)n(Cc2ccccc2)c(=O)c2c(C)c(C)sc21 -0.592%
CN(C)c1ccc(C(CNS(=O)(=O)c2ccc(Br)cc2)N2CCOCC2)cc1 (centres undefined) 0.645%
O=c1c2sc3ccccc3c2n(Cc2ccccc2F)c(=O)n1CCc1ccccc1 -6.46%
COc1ccc(-c2nnc(SCC(=O)Nc3ccc(F)cc3)s2)cc1 7.09%
CN(C)c1ccc(NC(=O)Cn2c(SCc3ccccc3F)nc3cccnc32)cc1 16.8%
Cc1ccc(C)c(S(=O)(=O)c2nnn3c2nc(NCc2ccc4c(c2)OCO4)c2sccc23)c1 0.468%
COC(=O)Nc1ccc(-c2nc(N3CCOCC3)c3cnn(C4CCN(C(=O)OC)CC4)c3n2)cc1 27.5%
Cc1cccc(N2C(=O)CCSC23C(=O)N(Cc2ccc(F)cc2)c2ccccc23)c1 (centres undefined) -7.42%
Cc1c(C)n(C)c2ccc(C(=O)NCCCN3CCCCC3)cc12 -3.5%
CCc1ccc(-c2ccc(C(=O)Oc3ccc(Br)cc3)cc2)nc1 13.9%
Cc1ccc(-c2nc(SCc3ccc(Br)cc3)n3[nH]c(=O)cc3n2)cc1 5.35%
Cc1c(-c2cccc(NC(=O)C(C)(C)C)c2)nc2ncccn12 11.5%
CCN(CC)S(=O)(=O)c1ccc(C(=O)N=c2sc3cccc(OC)c3n2C)cc1 -10.9%
Cc1ccc(S(=O)(=O)c2nc(-c3ccc(Cl)cc3)oc2N2CCCCCC2)cc1 -3.27%
COCCc1nn2c(=O)cc(COC(=O)c3ccc(C(C)(C)C)cc3)nc2s1 0.621%
Cc1ccc(Cn2ccc(NC(=O)c3cc(-c4ccc(Cl)c(Cl)c4)on3)n2)cc1 -14.4%

outcome, inactive:
COc1ccc(-c2cc(C(F)(F)F)nc(SCCC(=O)Nc3c(C)cccc3C)n2)cc1
COc1cc(NC(=O)Cn2cc(S(=O)(=O)c3ccccc3)c(=O)c3ccccc32)cc(OC)c1
CCc1ccccc1NC(=O)Cc1c(C(=O)O)[nH]c2ccc(Cl)cc12
Cc1ccc(Cn2c(CNC(=O)c3ccccc3Br)nc3cccnc32)cc1
O=C(NCCc1ccccc1)C(=O)Nc1cccc(Br)c1
COc1ccc(CCNC(=O)C(=O)NCC(c2ccco2)S(=O)(=O)c2ccccc2)cc1OC (centres undefined)
O=C(NCCCc1nc2ccccc2n1Cc1ccc(Cl)cc1)c1ccco1
COc1ccc(-n2c(SCc3ccccc3F)nc3c([nH]c4ccccc43)c2=O)cc1
CSc1nn(Cc2ccc(Br)cc2)c(N(C(C)=O)C(C)=O)c1S(=O)(=O)c1ccccc1
CC(=O)c1ccc(NC(=O)C2CCC(CNS(=O)(=O)c3ccc4c(c3)CCCC(=O)N4)CC2)cc1 (centres undefined)
CCOc1ccc(CCNC(=O)c2ccc3nc(CC)c(CC)nc3c2)cc1
CCOc1ccc(CNC(=O)c2cnc3sc(N4CCC(C)CC4)nn3c2=O)cc1OC
Cc1ccc(S(=O)(=O)c2c(C)nn(-c3ccccc3)c2OC(=O)c2ccccc2F)cc1
CCC(=O)Oc1ccc(-c2nc3ccccc3c(=O)o2)cc1
CCN(c1ccc(Cl)cc1)S(=O)(=O)c1nnc(NC(=O)C(C)C)s1
Cc1ccc(-c2c(C(=O)NCCc3ccc(Cl)cc3)oc(=O)c3ccccc23)cc1
COc1ccc(NC(=O)C2=C(C)Nc3nc(SCc4ccccc4)nn3C2c2cc(OC)ccc2OC)cc1 (centres undefined)
O=C(c1ccc2c(Cl)c3c(nc2c1)CCCC3)N1CCN(c2cccc(Cl)c2)CC1
CN1CC(=O)N(CC(=O)Nc2ccc(Cl)c(C(F)(F)F)c2)c2ccccc2C1=O
COc1ccc(CNc2ncnc3c2c(-c2ccccc2)cn3-c2ccccc2)cc1
Cc1nnc(SCC(=O)NCc2ccccc2F)c2nn(-c3ccc(Cl)cc3)c(C)c12
CCC1CN(C(=O)N2CCC(C(=O)NCc3cccs3)CC2)c2cc(C)ccc2O1 (centres undefined)
